# In PMC12820563:
# Some of the results follow. The list includes weakly bound sequences.
# Molecular target: T1, MBP-FoxP3dN (UniProt Q99JB6)
# T1 sequence: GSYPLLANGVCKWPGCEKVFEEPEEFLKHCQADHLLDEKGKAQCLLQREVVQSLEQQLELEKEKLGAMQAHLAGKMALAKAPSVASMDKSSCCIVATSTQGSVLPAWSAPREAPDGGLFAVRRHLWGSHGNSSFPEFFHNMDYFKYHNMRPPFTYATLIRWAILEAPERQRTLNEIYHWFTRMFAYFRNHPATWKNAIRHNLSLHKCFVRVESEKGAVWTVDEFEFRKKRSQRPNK
# Assay: PD-seq (MBP pull-down with sequencing)
# Conditions: 20 mM Tris-HCl pH 7.5, 100 mM NaCl, 1.5 mM MgCl2, 0.4 uM protein, 0.1 uM dsDNA library, 30 min, room temperature, amylose pull-down; high values mean tight binding; double strand, one strand shown
row,Sequence,binding signal (RPM ratio (pull-down/input))
1,GATGATTGTTCTCCCAGCTGATGAATTCCACAAATCGAGTAAACAAATTTTCCTAATCTTTCTGTTCAAGCGCCATCTAC,0.223
2,GATGATTGTTCTCCCAGCTGATGAATTGGCCTCTTCGAGTAAACAAATTTTCCTAATCTTTCTGTTCAAGCGCCATCTAC,1.37
3,GATGATTGTTCTCCCAGCTGATGAATTTCGAGTTTCGAGTAAACAAATTTTCCTAATCTTTCTGTTCAAGCGCCATCTAC,1
4,GATGATTGTTCTCCCAGCTGATGAATTAAGCTTCTCGAGTAAACAAATTTTCCTAATCTTTCTGTTCAAGCGCCATCTAC,1.78
5,GATGATTGTTCTCCCAGCTGATGAATTACTCGAATCGAGTAAACAAATTTTCCTAATCTTTCTGTTCAAGCGCCATCTAC,0.269
6,GATGATTGTTCTCCCAGCTGATGAATTTAGAACATCGAGTAAACAAATTTTCCTAATCTTTCTGTTCAAGCGCCATCTAC,0.579
7,GATGATTGTTCTCCCAGCTGATGAATTATTGCACTCGAGTAAACAAATTTTCCTAATCTTTCTGTTCAAGCGCCATCTAC,1.36
8,GATGATTGTTCTCCCAGCTGATGAATTGCAACAGTCGAGTAAACAAATTTTCCTAATCTTTCTGTTCAAGCGCCATCTAC,2.42
9,GATGATTGTTCTCCCAGCTGATGAATTAGATAGATCGAGTAAACAAATTTTCCTAATCTTTCTGTTCAAGCGCCATCTAC,0.342
10,GATGATTGTTCTCCCAGCTGATGAATTCTTCCTGTCGAGTAAACAAATTTTCCTAATCTTTCTGTTCAAGCGCCATCTAC,0.18
11,GATGATTGTTCTCCCAGCTGATGAATTAAGTGCCTCGAGTAAACAAATTTTCCTAATCTTTCTGTTCAAGCGCCATCTAC,0.884
12,GATGATTGTTCTCCCAGCTGATGAATTCAGGACGTCGAGTAAACAAATTTTCCTAATCTTTCTGTTCAAGCGCCATCTAC,0.259
13,GATGATTGTTCTCCCAGCTGATGAATTACGTCAATCGAGTAAACAAATTTTCCTAATCTTTCTGTTCAAGCGCCATCTAC,0.466
14,GATGATTGTTCTCCCAGCTGATGAATTTACCGCTTCGAGTAAACAAATTTTCCTAATCTTTCTGTTCAAGCGCCATCTAC,0.539
15,GATGATTGTTCTCCCAGCTGATGAATTCCTGAAATCGAGTAAACAAATTTTCCTAATCTTTCTGTTCAAGCGCCATCTAC,0.237
16,GATGATTGTTCTCCCAGCTGATGAATTTAAGCTATCGAGTAAACAAATTTTCCTAATCTTTCTGTTCAAGCGCCATCTAC,0.511
17,GATGATTGTTCTCCCAGCTGATGAATTCTATCAGTCGAGTAAACAAATTTTCCTAATCTTTCTGTTCAAGCGCCATCTAC,0.44
18,GATGATTGTTCTCCCAGCTGATGAATTCGTGCCTTCGAGTAAACAAATTTTCCTAATCTTTCTGTTCAAGCGCCATCTAC,2.26
19,GATGATTGTTCTCCCAGCTGATGAATTCCCTCAGTCGAGTAAACAAATTTTCCTAATCTTTCTGTTCAAGCGCCATCTAC,0.214
20,GATGATTGTTCTCCCAGCTGATGAATTTTCTACATCGAGTAAACAAATTTTCCTAATCTTTCTGTTCAAGCGCCATCTAC,0.336

row,Sequence,binding signal (RPM ratio (pull-down/input))
1,GATGATTGTTCTCCCAGCTGATGAATTTCCACGGTCGAGTAAACAAATTTTCCTAATCTTTCTGTTCAAGCGCCATCTAC,0.19
2,GATGATTGTTCTCCCAGCTGATGAATTCGTGGACTCGAGTAAACAAATTTTCCTAATCTTTCTGTTCAAGCGCCATCTAC,0.554
3,GATGATTGTTCTCCCAGCTGATGAATTATTGTCTTCGAGTAAACAAATTTTCCTAATCTTTCTGTTCAAGCGCCATCTAC,1.5
4,GATGATTGTTCTCCCAGCTGATGAATTCATAGCCTCGAGTAAACAAATTTTCCTAATCTTTCTGTTCAAGCGCCATCTAC,0.493
5,GATGATTGTTCTCCCAGCTGATGAATTGCGTAGTTCGAGTAAACAAATTTTCCTAATCTTTCTGTTCAAGCGCCATCTAC,1.39
6,GATGATTGTTCTCCCAGCTGATGAATTGTGCTCGTCGAGTAAACAAATTTTCCTAATCTTTCTGTTCAAGCGCCATCTAC,0.963
7,GATGATTGTTCTCCCAGCTGATGAATTTGGTCTGTCGAGTAAACAAATTTTCCTAATCTTTCTGTTCAAGCGCCATCTAC,0.534
8,GATGATTGTTCTCCCAGCTGATGAATTGGCGGAATCGAGTAAACAAATTTTCCTAATCTTTCTGTTCAAGCGCCATCTAC,0.249
9,GATGATTGTTCTCCCAGCTGATGAATTGAGCGGGTCGAGTAAACAAATTTTCCTAATCTTTCTGTTCAAGCGCCATCTAC,0.401
10,GATGATTGTTCTCCCAGCTGATGAATTCAAGATATCGAGTAAACAAATTTTCCTAATCTTTCTGTTCAAGCGCCATCTAC,0.294
11,GATGATTGTTCTCCCAGCTGATGAATTAGTGTGATCGAGTAAACAAATTTTCCTAATCTTTCTGTTCAAGCGCCATCTAC,1.17
12,GATGATTGTTCTCCCAGCTGATGAATTCCATTGTTCGAGTAAACAAATTTTCCTAATCTTTCTGTTCAAGCGCCATCTAC,1.42
13,GATGATTGTTCTCCCAGCTGATGAATTATCGCCGTCGAGTAAACAAATTTTCCTAATCTTTCTGTTCAAGCGCCATCTAC,0.64
14,GATGATTGTTCTCCCAGCTGATGAATTCCGCTTGTCGAGTAAACAAATTTTCCTAATCTTTCTGTTCAAGCGCCATCTAC,3.68
15,GATGATTGTTCTCCCAGCTGATGAATTGCACATGTCGAGTAAACAAATTTTCCTAATCTTTCTGTTCAAGCGCCATCTAC,1.13
16,GATGATTGTTCTCCCAGCTGATGAATTGATGATATCGAGTAAACAAATTTTCCTAATCTTTCTGTTCAAGCGCCATCTAC,0.737
17,GATGATTGTTCTCCCAGCTGATGAATTCAGATGTTCGAGTAAACAAATTTTCCTAATCTTTCTGTTCAAGCGCCATCTAC,1.06
18,GATGATTGTTCTCCCAGCTGATGAATTCAGGCATTCGAGTAAACAAATTTTCCTAATCTTTCTGTTCAAGCGCCATCTAC,4.03
19,GATGATTGTTCTCCCAGCTGATGAATTTTGCTCGTCGAGTAAACAAATTTTCCTAATCTTTCTGTTCAAGCGCCATCTAC,0.732
20,GATGATTGTTCTCCCAGCTGATGAATTCCGCTAGTCGAGTAAACAAATTTTCCTAATCTTTCTGTTCAAGCGCCATCTAC,1.45
